# Experimental data from the supplement of paper PMC3334620.
# Over roughly 33,000 sequences, “E-score (-0.5 to 0.5)” has its median near -0.016; the highest 2% begin near 0.32. This is one part of the list.
# Biological target: T1, Stp1 (UniProt B3LFK1)
# T1 sequence: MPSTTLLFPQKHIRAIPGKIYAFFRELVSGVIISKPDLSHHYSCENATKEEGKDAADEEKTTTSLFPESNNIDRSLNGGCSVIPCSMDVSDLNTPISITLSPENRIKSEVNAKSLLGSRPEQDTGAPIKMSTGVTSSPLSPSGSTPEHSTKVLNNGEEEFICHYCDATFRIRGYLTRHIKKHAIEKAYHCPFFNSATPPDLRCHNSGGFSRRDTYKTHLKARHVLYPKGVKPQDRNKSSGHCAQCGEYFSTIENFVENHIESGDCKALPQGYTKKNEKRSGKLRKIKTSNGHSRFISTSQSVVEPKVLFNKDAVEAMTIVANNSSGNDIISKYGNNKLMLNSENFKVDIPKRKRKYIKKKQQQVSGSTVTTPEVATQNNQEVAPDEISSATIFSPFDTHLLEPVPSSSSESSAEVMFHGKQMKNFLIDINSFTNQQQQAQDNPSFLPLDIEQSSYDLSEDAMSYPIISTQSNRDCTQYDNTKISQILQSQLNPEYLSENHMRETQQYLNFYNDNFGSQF
# Experiment: PBM E-score (8-mer binding enrichment) (E-score (-0.5 to 0.5)); higher = stronger / more preferred TF binding; most listed sequences are background and not binding sites
# Conditions: protein concentration: 200 nM; construct: GST-full length
# Experimental: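 Universal 'all 10-mer' protein binding microarrays (Agilent AMADID 015681) probed with GST-tagged S. cerevisiae TFs (full-length or DBD) made by in vitro transcription/translation (PURExpress), about 100-200 nM. Bound TF was detected with fluorescent anti-GST. Each ungapped 8-mer (which stands for itself and its reverse complement) is scored by the PBM enrichment score (E-score), a modified Wilcoxon-Mann-Whitney statistic from -0.5 to +0.5, computed with the Universal PBM Analysis Suite. Scale: above 0.35 generally sequence-specific binding.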
row,Sequence,PBM E-score
1,AAGCCGTA,0.398
2,AAGGCAGT,0.103
3,AAGGCATA,0.181
4,GTGGGTCA,-0.142
5,ACAAAGAA,0.147
6,GAATAAGC,-0.0414
7,GATAATGC,0.143
8,GATCGGAA,-0.149
9,ATTAACTG,0.105
10,GTCTCCTA,-0.292
11,TGCTAGAA,0.0584
12,CTGAGGCC,-0.152
13,AACAGCGT,0.0405
14,CGTGACGC,0.226
15,CAAACCCC,-0.196
16,AATCAGCT,0.00157
17,TCACTCGA,-0.0257
18,CGAATAAA,0.179
19,CGAGGCAA,0.359
20,AGTTGCTA,0.129
21,CAGACACA,0.0457
22,CACGGGCG,0.0844
23,CTAGGGTC,-0.205
24,AGCCTTGA,-0.0777
25,AGGCACAG,0.133

row,Sequence,PBM E-score
1,ATCGGTAA,0.0314
2,ATCTACAG,0.129
3,CAATGTGA,0.179
4,GAGCTCAC,-0.113
5,AAGTCTCT,-0.368
6,AGACGGGC,0.0775
7,CCTACTTA,-0.0676
8,ACAGACAA,0.163
9,GCTGGCCA,-0.194
10,GTATTTCA,0.11
11,CAGGGACA,-0.015
12,AGCTCGGA,-0.226
13,CGCACGCA,-0.00526
14,ACGGATTC,0.121
15,TATGCGGA,0.207
16,CGAGTACG,0.00768
17,CAACTACG,-0.0551
18,GAGGCGCC,0.414
19,CGTTGTTA,0.107
20,TAGGAAGA,-0.355
21,AGTGTTGG,-0.103
22,CACCCCAC,-0.169
23,ACCATCCT,-0.103
24,ACCAAGGT,0.0467
25,TCTGTAAA,0.0755

row,Sequence,PBM E-score
1,AAATATCG,0.128
2,CGCTGGGA,-0.278
3,CAGTCTCC,-0.209
4,CCTCCTAA,-0.173
5,CAGTTTGC,0.129
6,CATAAAGG,0.0294
7,ATTGAGCC,0.224
8,TATAAGGA,0.224
9,TAAGTAGA,0.132
10,CACCTAAG,0.0678
11,ATAAAAAC,0.182
12,CACCAGGC,-0.167
13,GATAGACC,-0.163
14,AGTTATGG,-0.0288
15,CACCGATA,-0.0268
16,ATCTCAGA,-0.0839
17,CCCTTCAG,-0.262
18,CCTTTGAG,-0.117
19,CTCATATC,-0.109
20,CCGGCAGG,-0.17
21,TATGGTCA,-0.0624
22,CCGGTGCA,-0.169
23,AGCTGTAA,-0.0621
24,GACTACGA,-0.15
25,GAAGCCCA,-0.264

row,Sequence,PBM E-score
1,GATGTACC,-0.0748
2,AACCGGGC,-0.115
3,ATGATGCC,0.337
4,ATTCACGC,-0.039
5,AGGGTGCA,-0.0871
6,CCTACCAA,0.114
7,CGGCGTGA,0.298
8,CGTCGCAA,0.0975
9,CGTCGGCA,-0.00734
10,CCCTGCGA,-0.0927
11,GTCAAAGA,-0.0139
12,GCACAGGA,0.0797
13,AATCCGCT,-0.183
14,AAATCACC,0.0528
15,AACTTGAA,0.192
16,CTTTCTGA,0.0728
17,ATAGACAG,0.00341
18,CATTCCGC,-0.029
19,ACAGCTCA,-0.0404
20,TACGTAGA,0.113
21,GGATATAC,0.104
22,ATCATAAT,0.124
23,CGGCGTTA,0.454
24,ATTTGGCC,0.0824
25,CAGCTCAA,0.00202

row,Sequence,PBM E-score
1,AACGCCTT,0.328
2,AGAGTGCT,-0.00994
3,AAGTATTC,0.0654
4,CTCGGTTC,-0.217
5,GATACGCC,0.146
6,ACGCGTAC,0.118
7,AGCACGTA,-0.132
8,GCCCCTAA,-0.229
9,CAGTGTGG,-0.131
10,CAAACTGC,0.0962
11,AAAACAAG,0.0884
12,CGTGCGAG,0.192
13,CTTACGAC,-0.167
14,CGCATTAG,-0.155
15,AAAGTCAG,0.0706
16,ACGGGCGC,0.233
17,CGCGGGCA,0.175
18,CCTCGCCG,-0.0333
19,CAGCCTAC,-0.0641
20,CTCTACGC,0.0798
21,AATTAACT,0.0652
22,AAGCGTAT,0.0589
23,AAGCGCTA,-0.0662
24,ACGAGGTG,-0.0462
25,AGTCACTA,-0.0131

row,Sequence,PBM E-score
1,ATAAAATC,0.172
2,ACATCGCA,-0.185
3,GCTTCGTA,-0.0504
4,CATCAGGC,-0.0172
5,CAAGTATC,-0.0728
6,GCCCGTTA,-0.146
7,CCCCCATA,-0.301
8,GCAATACA,0.0967
9,ATATGCTG,-0.126
10,CAAGATGC,0.156
11,ACCACGCT,-0.0843
12,ATAGGTTG,-0.0757
13,GAGAGTAA,-0.0306
14,ATCGTTAC,-0.232
15,GCCCGAGC,0.0148
16,ACAATGTA,-0.034
17,TCACATAA,0.0966
18,GACCCCAA,-0.235
19,GCAGAAGC,0.0258
20,GACGCTCA,-0.136
21,AGGTCGGG,-0.311
22,AGCTAGCA,-0.0803
23,ACAGTTAT,-0.0487
24,ATGAGGGA,-0.268
25,AGATGTTG,-0.0993

row,Sequence,PBM E-score
1,AGTTTAAA,0.212
2,CCACACCG,0.126
3,CAGCAGCG,0.0862
4,CCTGCGAC,-0.287
5,AGCCTCTC,-0.167
6,ACTGGATG,-0.167
7,AGCCAGGG,-0.241
8,CCATGTGC,0.206
9,AATGCAGT,-0.0125
10,CTTGGGGC,0.194
11,CGGGCCAG,-0.159
12,CAGTCCAG,-0.212
13,AGATAAAC,0.213
14,CGTAAGCA,-0.107
15,GAATGTGC,0.13
16,ATCATGAA,0.106
17,ACTGGACC,-0.159
18,GGCCCAAA,-0.136
19,CAGCGCAA,-0.124
20,AAGACATG,-0.116
21,CATGACTC,-0.18
22,CTGGTGCA,-0.0667
